These results are taken from the RNAGym collection of RNA variant scans (doi:10.1073/pnas.2313332121).

First the molecules themselves.
B1: TPR 5TU (parent)
chain: GGAUCUUCUCGAUCUAACAAAAAAGACAAAUCUGCCACAAAGCUUGAGAGCAUCUUCGGAUGCAGAGGCGGCAGCCUUCGGUGGCGCGAUAGCGCCAACGUUCUCAACUAUGACACGCAAAACGCGUGCUCCGUUGAAUGGAGUUUAUCAUG

Variants at the floor of the assay are shown more often than the library holds them.

In this data set the parent is B1. The data set can be described thus: polymerase ribozyme fitness, log enrichment relative to wild type (log ratio); higher = more active; in vitro selection for triplet polymerase activity. In short, it runs like this:
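Frozen incubation at −7 °C formed the core of a single, triplicate in vitro selection round applied to PCR-built, transcribed mutant libraries of each subunit of a heterodimeric triplet polymerase ribozyme. Extended constructs were gel-excised, captured with streptavidin beads and amplified by RT-PCR, and input and output libraries were Illumina-sequenced with a filter of ≥10 input reads and ≥1 read per output. Fitness is the logarithm of genotype enrichment relative to wild-type enrichment, with inverse-variance-weighted replicate averaging, and the logarithm is base 2.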
On to C18G A52C C79G C93G C99U, for which the “polymerase ribozyme fitness (log ratio)” value is at most -4.2. With A17U G42A C79U G88C U102C U127A U134G U148A, the “polymerase ribozyme fitness (log ratio)” value was at most -4.2.

Take A17G C76G U144A: the “polymerase ribozyme fitness (log ratio)” value is at most -4.2. Regarding A16C A66C C75A C79U G140U, the “polymerase ribozyme fitness (log ratio)” value was at most -4.2. With A16G A49U C108U G117C A142C the figure was at most -4.2; with A16U G48C A73G C93U U102A, at most -4.2. To A17U C57A A73U C93U A97U A115G G143C belongs at most -4.2. With A16U A47G G67U G71A C103A C116U the figure was at most -4.2; with A16G U53A G62A C85U A89U G128C, at most -4.2; with U15G A24C A28G C51U C85U, at most -4.2. On to A17G G25A A41U C57G C75G U77G U78C G126A, for which the “polymerase ribozyme fitness (log ratio)” value is at most -4.2. With U15G C43U C93A U148A the figure was at most -4.2.

As to U15A A21U U44A C79G C87A, the “polymerase ribozyme fitness (log ratio)” value was at most -4.2.

On to A16C A29C G42U A52U C118G, for which the “polymerase ribozyme fitness (log ratio)” value was at most -4.2. In the case of A16U A47U G48A G68U A73G U77C C96U G136U, the “polymerase ribozyme fitness (log ratio)” value is at most -4.2. As for A17C C63G C69A G83U A91U G92U U104G, the “polymerase ribozyme fitness (log ratio)” value was at most -4.2. With C18A C36U G67C U148A the figure was at most -4.2; with A17U U55G A91U, at most -4.2; with A17U C38U G46A C54U C79U U135A, at most -4.2. With U15A A30C C35G C76G U77G C95A C118U G141U the figure was at most -4.2; with A16U G50U A52C A73G C85G A91U C105A, at most -4.2; with A17C A40G C63U A89G G117A G126C U127A U135G U139C G143A, at most -4.2. For the variant U15G C36G C93G G124C C125U G141U G143A U146G, the “polymerase ribozyme fitness (log ratio)” value was at most -4.2. With A16C U31G G59C C96G A97U G140C C149A the figure was at most -4.2; with U15G G46A G58U G67A C75U U78C U82G G88A C93G A98U G124U C132U, at most -4.2; with A17G A24U C63A A64U A91C, at most -4.2.

As to A16G A19U A20U G59U U82A C99A A137C U148G, the “polymerase ribozyme fitness (log ratio)” value was at most -4.2. With A17U A23G A30G G34U C57U C95G C99G C114U A137C A150C the figure was at most -4.2; with A17C A29U C32G A39G C43U A60G U61A C85A C118G A119U C132G, at most -4.2; with U15C A21U C32U C38U A49C U55A G58C, at most -4.2. To A16U A20U A60G G94U U134G belongs at most -4.2. To A17G A30C G94C A106G A115G belongs at most -4.2. Consider A17C A30G C36U G141C U148A, for which the “polymerase ribozyme fitness (log ratio)” value is at most -4.2.

With C18G A23C C32A U56C G84A U111C, the “polymerase ribozyme fitness (log ratio)” value is at most -4.2. With A17C G68C A73U G86C G94A C116A the figure was at most -4.2. To A16C G68A belongs at most -4.2; to A17G G71U C87A C125A G126U, at most -4.2; to C18G A49G G50A C96U A113U G124U, at most -4.2. For the variant A16U C32A U61A U78A G86U, the “polymerase ribozyme fitness (log ratio)” value was at most -4.2. As for U15C A23G G42C G86U C93G A120U A121U, the “polymerase ribozyme fitness (log ratio)” value was at most -4.2.

For the variant U15G C27A U53C C116G, the “polymerase ribozyme fitness (log ratio)” value was at most -4.2. With A16U A39G A49C C69A G83A the figure was at most -4.2; with A16G A23U A138G, at most -4.2; with U15G C38U G59U A91U C132G U134G A150G, at most -4.2. To A17C C38U A49C G58C U61A A91U A98U C108U belongs at most -4.2. To A16C U31C G34A U77G A89U C103A A106G A110G U111G belongs at most -4.2; to A17G A40C U53A C69A C99U U144G, at most -4.2. In the case of A16G G83U C87U C93G, the “polymerase ribozyme fitness (log ratio)” value was at most -4.2.

Consider U15A A29G G42C A60U A113U U145C, for which the “polymerase ribozyme fitness (log ratio)” value is at most -4.2. To A17G C87A belongs at most -4.2; to A16U A19C A40C C76A G86U G88C A122U, at most -4.2.

Turning to A17G A19C G48U A52C U53C U101G C108G G140U A150G G152U, the “polymerase ribozyme fitness (log ratio)” value is at most -4.2.

A17U A60U G65C G112U: the “polymerase ribozyme fitness (log ratio)” value was at most -4.2. A16C U56A G62A C85A U102G: the “polymerase ribozyme fitness (log ratio)” value was at most -4.2. With A17U G46C G65A C85G G117U A122C A137G the figure was at most -4.2; with U15C A26U A29G C85U A91U G94U A113U, at most -4.2. To C18A A49C U104C G128U A137G belongs at most -4.2. Regarding U15G C35G U55A U56A A60G U61A A64G C85A U90G C95U A97G C108A, the “polymerase ribozyme fitness (log ratio)” value is at most -4.2. To A16G C87U C99U A107U U134A belongs at most -4.2. As to A17G A24C, the “polymerase ribozyme fitness (log ratio)” value is at most -4.2. Regarding C14U U33A G68A C96G, the “polymerase ribozyme fitness (log ratio)” value was at most -4.2. To A17U G42A C85A C105U A107U A110C G136C belongs at most -4.2. To U15A C38G G68U C69U C93A A113G G141A U144A belongs at most -4.2.

In the case of A16U A22C A40G G92A C105U, the “polymerase ribozyme fitness (log ratio)” value is at most -4.2. With A16U G62A C75U U144A the figure was at most -4.2; with C14U U44A C79A U90C C96U A142U, at most -4.2. Take A16U G25C A64G G70A G84U A91U U102A C105U C114A C123A: the “polymerase ribozyme fitness (log ratio)” value is at most -4.2. With A16U U148A the figure was at most -4.2; with A16G A17U A24C C36G C76A U77G C96U, at most -4.2; with A16C A64U A147C, at most -4.2. To C18G A30U C69G C85G G143C belongs at most -4.2; to A17G U53A C75G C79G C85U C123A C132U G140A, at most -4.2.

As for A16C A66U C85G G88U C93U, the “polymerase ribozyme fitness (log ratio)” value is at most -4.2. On to A16U A52C U53C U55A G88A U90C G133C, for which the “polymerase ribozyme fitness (log ratio)” value was at most -4.2. To U15G G50A U104C A137U belongs at most -4.2; to U15G G50C U53G U55A C87U C99A C132U U134A A138U U148G, at most -4.2; to A16U C32G C36A A113U A138U, at most -4.2.

Turning to A17U U44A C54A G83C A98U G152U, the “polymerase ribozyme fitness (log ratio)” value is at most -4.2. To A16C A37C C43G G86C U148C belongs at most -4.2; to A17U A40U C54A C108G, at most -4.2; to A16G A26U G83A A122U C125U G143C, at most -4.2. To U15G U53C A60G C87A A89C U144A U151G belongs at most -4.2. Turning to U15C G42U A115G G141A, the “polymerase ribozyme fitness (log ratio)” value was at most -4.2.
